Test results as given in article PMC11302665.

Molecular target: T1, L-cysteine desulfurase IscS (E. coli), P0A6B7
T1 chain: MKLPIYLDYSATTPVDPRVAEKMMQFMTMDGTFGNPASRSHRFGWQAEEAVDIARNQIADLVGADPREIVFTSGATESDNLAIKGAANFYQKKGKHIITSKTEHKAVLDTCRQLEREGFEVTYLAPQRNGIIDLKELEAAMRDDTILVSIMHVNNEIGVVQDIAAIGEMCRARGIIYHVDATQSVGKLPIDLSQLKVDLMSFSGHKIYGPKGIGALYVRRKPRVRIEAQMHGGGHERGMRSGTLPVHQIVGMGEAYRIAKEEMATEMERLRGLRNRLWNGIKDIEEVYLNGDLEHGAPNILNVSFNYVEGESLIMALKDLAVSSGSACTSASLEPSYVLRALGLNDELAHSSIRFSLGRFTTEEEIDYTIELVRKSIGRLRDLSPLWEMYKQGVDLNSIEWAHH
Assay: native MS; ESI-MS under non-denaturing conditions of IscS alone, 250 mM ammonium acetate, pH 8.0
Details: remark: other sources report otherwise

stoichiometry N: 2
B1: L-cysteine desulfurase IscS, P0A6B7 1-404 (enzyme)
chain: T1 chain
modifications: here or on the partner: PLP (pyridoxal phosphate) cofactor; PLP (pyridoxal phosphate) cofactor
